PubChem BioAssay AID686978 (National Center for Advancing Translational Sciences (NCATS), 2013)
Hit rate of the full screen: of about 420,000 compounds, about 64,000 (15%) were called active. The shares of active, inactive and inconclusive entries below differ from those in the screen. Calls come from the whole dose curve; as a rule, active = well fitted inhibition curve with a large enough effect; inconclusive = small, poorly fitted or top-dose-only effect; inactive = flat fitted curve, though single readings scatter. Potencies of inconclusive entries are left out as doubtful fits.

Assay: qHTS for Inhibitors of human tyrosyl-DNA phosphodiesterase 1 (TDP1): qHTS in cells in absence of CPT; note: nearly all actives have a fitted effect of over 55% in size
Conditions: DT40 Tdp1-/- hTDP1 cells, no CPT, ATP luminescence, 48 h; activity change, negative = growth inhibition: at 46.2 µM (top of the series)
Procedure, shortened: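 Stably hTDP1-transfected Tdp1-null chicken DT40 cells were treated with library compounds minus camptothecin and grown for at least 48 hr at 37 °C, after which cellular ATP was quantified by luminescence.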
% is set by controls: 0 for no effect and ±100 for the full control effect; potency is the fitted concentration of half-maximal effect; tags give direction and shape of the fitted curve.

Structure (SMILES) | Potency | activity change, negative = growth inhibition
CNC(=O)CSc1nnc(CCc2ccccc2)n1-c1ccccc1 | inconclusive [inhibitor, full curve, poor fit] | 
Cc1cc(S(=O)(=O)Nc2c(C)nc3nc[nH]n3c2=O)ccc1F | inactive | 
CCN(Cc1nc(-c2ccc(Cl)cc2)no1)CC1CCCO1 (stereo not given) | inconclusive [inhibitor, partial curve, poor fit] | 
Cc1ccc(C(=O)Nc2nnc(S(=O)(=O)N(C)Cc3ccc(Cl)cc3)s2)cc1 | inconclusive [inhibitor, partial curve] | 
CC(=O)Oc1ccccc1/C=C/c1nc2ccccc2c(=O)o1 |  | inconclusive: -31.3% [inhibitor]
COc1cc(Nc2ncc3c(n2)CCN(Cc2ccc(OC(C)C)c(OC)c2)C3)cc(OC)c1 | active: 13 µM | 
COc1cccc(C(C(=O)NC(C)(C)C)N(C(=O)CCC(=O)Nc2cc(C)on2)c2ccc3c(c2)OCCO3)c1OC (stereo not given) | inconclusive [inhibitor, single point] | 
COC(=O)[C@@]1(Cc2ccc(F)cc2)[C@H]2c3cc(C(=O)N(C)C)n(CCc4c[nH]c5ccc(O)cc45)c3C[C@H]2CN1C(=O)c1ccccc1 | inconclusive [inhibitor, single point] | 
CC(Cc1cccs1)NC(=O)Nc1cccc(Cl)c1 (stereo not given) | inconclusive [inhibitor, single point] | 
COc1ccc(NC(=O)N2CCC(c3nc4ccccc4[nH]3)CC2)cc1 | inactive | 
COc1ccc(NC(=O)c2csnn2)cc1Cl |  | inconclusive: -31.5% [inhibitor]
CCc1nn2c(=O)cc(COC(=O)c3ccc(NC(=O)COc4ccccc4C)cc3)nc2s1 | inactive | 
Cc1cccc[n+]1C1C(c2ccccc2)C(C#N)=C(C(=C=[N-])C#N)NC1(O)C1CC1 (stereo not given) | inconclusive [inhibitor, single point] | 
COc1ccc2nc(NNC(=O)c3cc(=O)c4ccccc4o3)sc2c1 | inconclusive [inhibitor, single point] | 
COC(=O)Cc1c(C)nc2nc(-c3ccc(Cl)cc3)[nH]n2c1=O | inactive | 
Cc1nc(NC(=O)c2csc3ccccc23)sc1C | inconclusive [inhibitor, single point] | 
Cc1csc(SCC(=O)Nc2ccccc2[N+](=O)[O-])n1 | inactive | 
CCN1CCN(c2nnc(-n3cccc3C(=O)NCc3ccccc3OC)s2)CC1 | inconclusive [inhibitor, single point] | 
CNCc1cc(Br)c(OCC(=O)Nc2ccccc2OC)c(OC)c1 | inconclusive [inhibitor, single point] | 
Cc1ccc(S(=O)(=O)N2CCCC(C(=O)NCc3ccccc3F)C2)cc1 (stereo not given) | inactive | 
O=C(C1CCN(S(=O)(=O)c2ccc(Cl)c(C(F)(F)F)c2)CC1)N1CCC1 | inconclusive [inhibitor, partial curve, poor fit] | 
O=C(CCN1N=C(c2ccccc2)CCC1=O)NCCCN1CCOCC1 | inactive | 
O=C(c1noc2c1CCCCC2)N1CCN(c2cccc(Cl)c2)CC1 | inconclusive [inhibitor, single point] | 
O=C(Nc1ccccc1C(=O)O)c1ccccc1 | inactive | 
O=C(c1cc2ccccc2o1)N1CCN(Cc2ccccc2)CC1 | inconclusive [inhibitor, single point] | 

Structure (SMILES) | Potency | activity change, negative = growth inhibition
Cc1ccc(-c2nc(NCc3ccco3)c3ccccc3n2)cc1 | inconclusive [inhibitor, single point] | 
CCOC(=O)N1CCN(S(=O)(=O)c2ccc(F)c(C(=O)Nc3cccc(C)c3C)c2)CC1 |  | inconclusive: -33.2% [inhibitor]
O=C1NC(=O)/C(=C\c2cn(CC(=O)N3CCOCC3)c3ccccc23)S1 | inactive | 
COc1ccccc1NC(=O)C12CCC(C)(C(=O)C1)C2(C)C (stereo not given) | inactive | 
Cc1ccccc1OC(=O)c1cc(-c2ccc3c(c2)OCCO3)on1 | inactive | 
O=C(Nc1cccn(Cc2c(Cl)cccc2Cl)c1=O)c1ccc(Cl)cc1Cl | inconclusive [inhibitor, partial curve, poor fit] | 
COc1ccccc1N1CCN(C(=O)C(C)N(c2ccc(C)c(C)c2)S(C)(=O)=O)CC1 (stereo not given) | inconclusive [inhibitor, single point] | 
COC(=O)c1c(C)n(-c2ccccc2)c2ccc(O)cc12 | inconclusive [inhibitor, single point] | 
COc1cc(CNC(=O)c2cc(-c3ccc(OC)cc3C)n[nH]2)cc(OC)c1 | inactive | 
O=c1c(-c2cccc(Cl)c2)nc2cncnc2n1-c1ccccc1 | inactive | 
COc1cc(C2NC(=O)NC(C)=C2C(=O)OC(C)C)ccc1OC(=O)c1ccco1 (stereo not given) | inactive | 
O=C(Nc1ccccc1C(=O)NC1CCCCC1)c1ccco1 | inconclusive [inhibitor, single point] | 
O=C(COc1ccc(Cl)cc1)Nc1nc(-c2cccs2)cs1 | inconclusive [inhibitor, single point] | 
COc1ccccc1NC(=S)NNC(=O)c1cc(C)nn1C | inactive | 
COc1ccc(NC(=O)C2CCN(C3=NS(=O)(=O)C(c4ccc(C)c(C)c4)=C3C)CC2)c(OC)c1 | inconclusive [inhibitor, single point] | 
CCCCC(=O)Nc1cc2nn(-c3ccc(OC)cc3)nc2cc1C | inactive | 
Cc1ccc(NC(=O)CSc2ccc(-c3ccccn3)nn2)c(C)c1 | inconclusive [inhibitor, single point] | 
c1ccc(Nc2ncnc3[nH]ncc23)cc1 | inactive | 
CCOc1ccc(NC(=O)N(C2CCCCC2)C2CCN(C(C)=O)CC2)cc1 | inactive | 
CCc1cc(/C(Cc2ccccn2)=N\Nc2ccccc2)c(O)cc1O | inactive | 
CNC(=O)c1[nH]cnc1C(=O)N[C@@H](Cc1ccccc1)C(=O)OCc1ccccc1 | inconclusive [inhibitor, single point] | 
COc1ccccc1NS(=O)(=O)c1ccc(NC(=O)c2ccncc2)cc1 | inconclusive [inhibitor, partial curve] | 
O=c1c([N+](=O)[O-])c(O)c2ccccc2n1Cc1ccccc1 | inactive | 
O=C(NCCc1csc(-c2cccc(F)c2)n1)C(=O)Nc1cc(F)ccc1F | inactive | 
N#CC1C(=O)c2ccccc2C1c1ccccc1 (stereo not given) | inconclusive [inhibitor, single point] | 

Structure (SMILES) | Potency | activity change, negative = growth inhibition
CC(NC(=O)COc1ccccc1)C(=O)NC1=NCCS1 (stereo not given) | inactive | 
COc1cc(CNC(=O)C2CCC(=O)N(C3CCCCCC3)C2)cc(OC)c1 (stereo not given) | inactive | 
Cc1nc(SCC(=O)c2ccccc2)c([N+](=O)[O-])[nH]1 | inactive | 
CCCCN1CC[C@H]2C=CC[C@@H](C(=O)NCc3ccc(OC)cc3)[C@H]2C1=O | inconclusive [inhibitor, partial curve, poor fit] | 
CC(Sc1nc(-c2ccccc2)c(-c2ccccc2)[nH]1)C(=O)NCC1CCCO1 (stereo not given) | active: 23.1 µM | 
CC(C)c1ccc(N(CCc2ccccn2)C(=O)C(C)(C)C)cc1 | active: 14.6 µM | 
Cc1cccc(S(=O)(=O)NNC(=O)c2sc(C)nc2C)c1 | inactive | 
O=C1c2ccccc2C(c2nnnn2Cc2ccccc2)N1Cc1cccc(F)c1 (stereo not given) | inconclusive [inhibitor, single point] | 
Cc1onc(-c2ccccc2)c1C(=O)Nc1cc(C(F)(F)F)ccc1N1CCOCC1 | active: 2.91 µM | 
CC(CN1C(C)CCCC1C)OC(=O)c1cccc(Br)c1 (stereo not given) | inactive | 
CNC(=S)/N=C(\Nc1ccc(C)cc1)c1ccccc1 | inconclusive [inhibitor, single point] | 
CCCCNC(=O)CN1CCC2(O)CCCCC2C1c1ccccc1OC (stereo not given) | inconclusive [inhibitor, single point] | 
COC(=O)CSc1nc(C)c(Oc2ccccc2)c(=O)[nH]1 | inconclusive [inhibitor, full curve] | 
Cc1cccc(NC(=O)CNC(=O)Cc2ccc3c(c2)OCCO3)c1C | inactive | 
O=C(NCCCN1CCOCC1)c1cc2c([nH]c3ccccc32)c(-c2cccc(Br)c2)n1 | active: 8.2 µM | 
O=C(Nc1ccccc1C(=O)O)c1ccc(NC(=O)c2ccc(Br)o2)cc1 | inconclusive [inhibitor, single point] | 
Cc1nc(C)c(C(=O)N/N=C/c2ccco2)s1 | inconclusive [inhibitor, full curve, poor fit] | 
CCc1ccccc1NC(=O)Cn1nnc2sc3c(c2c1=O)CCC(C(C)(C)C)C3 (stereo not given) | active: 14.6 µM | 
O=C(CN(C(=O)CCC(=O)Nc1nccs1)c1ccc(F)cc1)NCc1ccc2c(c1)OCO2 | inconclusive [inhibitor, partial curve] | 
O=C(c1cc(COc2cccc(C(F)(F)F)c2)on1)N1CCC(c2ccccc2)CC1 | inconclusive [inhibitor, single point] | 
CCOC(=O)CCC(NC(=O)c1ccc(Nc2nc3ccccc3nc2C(=O)OCC)cc1)C(=O)OCC (stereo not given) | active: 7.31 µM | 
Cc1cc(=O)oc2cc(OCC(=O)OCC(=O)NCCc3ccccc3)ccc12 | inactive | 
CCOC(=O)c1oc2nc(CC(C)C)c3c(c2c1N)CCCC3 | active: 23.1 µM | 
O=C(Nc1ccccc1C(=O)O)c1cc(S(=O)(=O)N2CCCCCC2)ccc1Cl | inconclusive [inhibitor, single point] | 
CCOc1ccccc1NC(=O)CN1CCC(C(=O)c2ccc(F)cc2)CC1 | active: 25.9 µM | 
